# Measured values as given in PubChem BioAssay AID686978 (National Center for Advancing Translational Sciences (NCATS), 2013).
# Values joined by “and” are separate entries in the source; they are usually repeats but may differ in a detail not shown here. Identical values can stand only once. About 64,000 (15%) of roughly 420,000 compounds were called active. The inconclusive results got no clear call from the source; some entries with a clear call stand among them for comparison. Calls come from the whole dose curve; as a rule, active = well fitted inhibition curve with a large enough effect; inconclusive = small, poorly fitted or top-dose-only effect; inactive = flat fitted curve, though single readings scatter. A potency beside an inconclusive call is a rough fit, not a confirmed value.
# Assay: qHTS for Inhibitors of human tyrosyl-DNA phosphodiesterase 1 (TDP1): qHTS in cells in absence of CPT; note: nearly all actives have a fitted effect of over 55% in size
# Details: DT40 Tdp1-/- hTDP1 cells, no CPT, ATP luminescence, 48 h; activity change, negative = growth inhibition: at 46.2 µM (top of the series) unless noted
# How it was run: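 Chicken DT40 Tdp1-/- cells stably complemented with human TDP1 were seeded at 400 cells/well with DMSO in place of 20 nM camptothecin. After compound pinning, cells grew at least 48 hr at 37 °C; viability read by CellTiter-Glo luminescence.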
# % is set by controls: 0 for no effect and ±100 for the full control effect; potency is the fitted concentration of half-maximal effect; tags give direction and shape of the fitted curve.
Structure (SMILES),Potency,"activity change, negative = growth inhibition"
Cc1cccc(N2CCN(C(=O)CCNS(=O)(=O)c3ccc4c(c3)CCC(=O)N4)CC2)c1C,"inconclusive: 23.1 µM [inhibitor, single point]",–
Cc1ccc(-c2ccc(C3=CC(=O)CC(C)(C)C3=O)cc2)cc1,inactive,–
CCOC(=O)/C(C(N)=NCC(C)C)=C(/O)c1ccccc1,–,inconclusive: -31.1% [inhibitor]
CC(C)(C)c1cc(=O)n(-c2ccccc2)[nH]1,"inconclusive: 29.1 µM [inhibitor, single point]",–
Nc1nc2ccccc2n1C(=O)c1ccccc1,active: 18.4 µM,–
Cc1ccc(N2CC(NC(=O)c3ccc(S(=O)(=O)N4CCCC4)cc3)CC2=O)cc1C (centres undefined),active: 18.4 µM,–
O=C(Nc1ccccc1)[C@@]12C[C@@H]1/C(=N/O)c1ccccc1O2,"inconclusive: 33.5 µM [inhibitor, single point]",–
COc1cc(/C=N\NC(=O)c2ccc(-c3ccccc3)cc2)ccc1OCC(N)=O,"inconclusive: 13 µM [inhibitor, partial curve]",–
Cc1cc(Br)c(NC(=O)CCl)c(Br)c1,"inconclusive: 29.1 µM [inhibitor, partial curve, poor fit]",–
CCOC(=O)c1csc(NC(=O)CSc2nnnn2-c2ccc(OCC)cc2)n1,"inconclusive: 0.0164 µM [inhibitor, full curve]",–
COc1cccc(NC(=O)CN(C)C(=O)C2CC3C=CC2C3)c1 (centres undefined),"inconclusive: 20.6 µM [inhibitor, single point]",–
Oc1ccc(/C=N/NC(=S)Nc2cccnc2)cc1,"inconclusive: 18.4 µM [inhibitor, single point]",–
CCN(CC)S(=O)(=O)c1ccc(/C(O)=C2/C(=O)C(=O)N(CCOC)C2c2ccccc2)cc1 (centres undefined),inactive,–
CC(C)NC(=O)NC(=O)CN1c2cccc3cccc(c23)S1(=O)=O,inactive,–
CC1N(C)c2cccc3cccc(c23)N1C,"inconclusive: 20.6 µM [inhibitor, single point]",–
CCC(C)(C(=O)NC1CCCCC1)N(Cc1ccco1)C(=O)Cc1cccs1 (centres undefined),"inconclusive: 16.4 µM [inhibitor, single point]",–
Oc1ccc(Cl)cc1CN1CCOc2c(O)cc(-c3nc4ccccc4s3)cc2C1,"inconclusive: 16.4 µM [inhibitor, single point]",–
CCOC(=O)c1c(S(=O)(=O)N2CCCC(C(=O)NCc3cccc(OC)c3)C2)c(C)n(C)c1C (centres undefined),inactive,–
Cc1ccc(-c2cn(-c3cccc(Cl)c3)c(S(=O)(=O)CC(=O)Nc3cccc(C)c3)n2)cc1,"inconclusive: 20.6 µM [inhibitor, single point]",–
Cc1cccc(Nc2nc(N)nc(CSC(=S)N3CCOCC3)n2)c1,"inconclusive: 29.1 µM [inhibitor, single point]",–
Cc1cccc(CS(=O)(=O)Cc2ccc(C(=O)NCCc3ccccc3)o2)c1,"inconclusive: 16.4 µM [inhibitor, single point] and inconclusive: 29.1 µM [inhibitor, single point]",–
Cc1cccc(NC(=O)c2ccc(CN3CCc4ccccc4C3)cc2)c1C,"inconclusive: 20.6 µM [inhibitor, single point]",–

Structure (SMILES),Potency,"activity change, negative = growth inhibition"
COc1ccc(CCNc2nc(-c3ccc(OC)c(OC)c3)cc(C(F)(F)F)n2)cc1OC,"inconclusive: 29.1 µM [inhibitor, single point]",–
Cc1ccc(NC(=O)Nc2cc(C(F)(F)F)c[nH]c2=O)cc1,inactive,–
OC(CNCC1COc2ccccc2O1)COc1ccccc1F (centres undefined),inactive,–
Cc1ccc(C)c(NC(=O)CCC(=O)N/N=C/c2ccc[nH]2)c1,inactive,–
COc1cc2c(cc1CNC[C@H]1O[C@@H](n3ccc(N)nc3=O)[C@H](O)[C@@H]1O)OCO2,inactive,–
COc1cccc(OC)c1C(=O)Nc1cccc(-c2cn3ccsc3n2)c1,"inconclusive: 16.4 µM [inhibitor, single point]",–
Cc1ccc(/C=N/N=C2\SCC(=O)N2CC2CC2)cc1,inactive,–
CC(=O)Oc1c(C(C)C)cc(N(C(C)=O)c2ccccc2)cc1C(C)C,"inconclusive: 23.1 µM [inhibitor, single point]",–
Cn1nc(C(=O)NCc2cccc(F)c2)cc1C(=O)NCc1cccc(F)c1,"inconclusive: 32.6 µM [inhibitor, single point]",–
CCOc1ccc(N2CC(c3nc4ccccc4n3Cc3ccccc3F)CC2=O)cc1 (centres undefined),"inconclusive: 32.6 µM [inhibitor, partial curve, poor fit]",–
O=[N+]([O-])c1ccc(Cl)cc1NCCCN1CCOCC1,inactive,–
Cc1ccc(/C=C/C(=O)NC(=S)Nc2ccc(S(=O)(=O)Nc3cc(C)on3)cc2)cc1,inactive,–
CCN(c1ccc(OC)cc1)S(=O)(=O)N1CCCC(C(=O)NCc2cccc(C)c2)C1 (centres undefined),"inconclusive: 16.4 µM [inhibitor, partial curve, poor fit]",–
COc1ccc2[nH]cc(C(=O)CN(C)CCc3ccc(OC)c(OC)c3)c2c1,active: 20.6 µM,–
C/C(=N\NC(=O)c1nnn(-c2nonc2N)c1-c1cccs1)c1ccncc1,inactive,–
O=C(CN1CCCC1c1cccs1)Nc1cc(S(=O)(=O)N2CCCC2)ccc1Cl (centres undefined),"inconclusive: 16.4 µM [inhibitor, partial curve]",–
COC(=O)Nc1cccn(Cc2c(Cl)cccc2Cl)c1=O,inactive,–
OCCN1CCN(c2ncnc3c2ncn3[C@H]2CN(Cc3ccc(-c4ccccc4)cc3)C[C@@H](CO)O2)CC1,active: 6.51 µM,–
O=C(N/N=C/c1ccc(F)cc1)c1cc(-c2ccco2)nc2ccccc12,active: 13 µM,–
COc1ccc(Cl)cc1NC(=O)CSc1nc(NS(=O)(=O)c2ccc(C)cc2)cc(=O)[nH]1,"inconclusive: 29.1 µM [inhibitor, single point]",–
O=C(Nc1ccncc1)C1CCN(S(=O)(=O)c2cccs2)CC1,"inconclusive: 29.1 µM [inhibitor, single point]",–
COc1ccc(CN2CCN(C(=O)CC(C)C)CC2)c2ccccc12,"inconclusive: 20.6 µM [inhibitor, single point]",–
